From the RNAGym collection of RNA variant scans (doi:10.1073/pnas.2313332121)
This sample is rich in variants without activity.

B1: TPR 5TU (parent)
chain: GGAUCUUCUCGAUCUAACAAAAAAGACAAAUCUGCCACAAAGCUUGAGAGCAUCUUCGGAUGCAGAGGCGGCAGCCUUCGGUGGCGCGAUAGCGCCAACGUUCUCAACUAUGACACGCAAAACGCGUGCUCCGUUGAAUGGAGUUUAUCAUG

Variants of: B1
Experiment: polymerase ribozyme fitness, log enrichment relative to wild type (log ratio); higher = more active; in vitro selection for triplet polymerase activity
Method in brief: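 One round of in vitro selection, in triplicate, was applied to PCR-built, transcribed mutant libraries of each subunit of a heterodimeric triplet polymerase ribozyme. The steps were annealing with a biotinylated primer, partner subunit and triplets, incubation frozen at −7 °C, gel excision of extended constructs, streptavidin-bead capture and RT-PCR. Fitness is the logarithm, base 2, of genotype enrichment over wild-type enrichment from inverse-variance-weighted replicate averages of Illumina-sequenced inputs and outputs, keeping genotypes with ≥10 input reads and ≥1 read per output.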
In the case of GGAUCUACUCGAUCUAACAAAAAAGACAAAUCUGACACAAAGCUUGAGAGCAUCUACGGAUGCAGAGGCGGCAGCCUUUGGUUGCGCGAUAGCGCCAACGUUCUCAACUAUGACACGCAAAACGCGUGCUCCGUUGAAUGGAGUAUAUCAUG [U7A C35A U56A C79U G83U U145A], the “polymerase ribozyme fitness (log ratio)” value is reported as ≤ -4.2. For GGAUCUACUCGAUCUAACAAAAAAGACAAAUGUGCCACAAAGCUUGAGUGCAUCUUCGGAUGCAGAGGCGGCAGCCAUCGGUGGCGCGAUAGCGCCAACGUUCUCAACUAUGACACGCAAAACGCGUGCUCCGUUGAAUGGAGUUUAUCAUG [U7A C32G A49U U77A], the “polymerase ribozyme fitness (log ratio)” value was ≤ -4.2. For GGAUCUACUCGAUCUAACAAAAAAGACAAAUCUGCCACAACACUUGAGAGCAUCUUCGCAUGCAGACGCGGCAGCCUUCGGUGGCGCGAUAGCGCGAACGUUCUCAACUAUGACACGCAAAACGCGUGCUCCGUUGAAUCGAAUUUAUCAUG [U7A A41C G42A G59C G67C C96G G140C G143A], the “polymerase ribozyme fitness (log ratio)” value was ≤ -4.2. For GGAUCUACACGAUCUAACAAUAAAGACAAAUCUGCCACAAAGCUUGAGAGCAUCAUCGAAUGCAGAGGCGGCAGCCUUCGGUGGCGCGAUAGCGCCAAGGUUCUCAACUAUGACACGCAAAACGCGUGUUCCGUUGAAUGGAGUUUCUCAUG [U7A U9A A21U U55A G59A C99G C129U A147C], the “polymerase ribozyme fitness (log ratio)” value was ≤ -4.2. With GGAUCUACUGGAUCUAACAAAAAAGACAAAUCUGCCACAAAGCUUGAGAGCAUCUUCCGAUGCAGAGGCGGCAGCCUUCGGUGGCGCGAUAGCGUCAACGUUCUCAAAUAUGACAUGCAAAAUGCGUGCUCCGGAGAAUGGAGUUUAUCAUG [U7A C10G G58C C95U C108A C116U C123U U134G U135A] the “polymerase ribozyme fitness (log ratio)” value was ≤ -4.2. For GGAUCUACUCGAUCUAACAAAAAAGACAAAUCUGCCACAAAGCUUGAGAGCAUCUUCGGGUGCAGAGGCGGCAGCCUUCGGUGGUGCGAUAGCGCCAACGUUCUCAACUAUGACACGCAAAACGCGUGCUCCGUUGAAUGGAGCUUAUCAUG [U7A A60G C85U U144C], the “polymerase ribozyme fitness (log ratio)” value was -3.61. With GGAUCUACUCGAUCUAAUAAAAAAGACAAAUCUGCCACAAAGCUUGAGAGCAUCUUCGGAUGCAGAGGCGGCAGCCUUCGGUGGCGCGAUUGCGCCUACGUCCUCAACUAUGACACGCAAAACGCGUGCUCCGUUGAAUGGAGGUUAUCAUG [U7A C18U A91U A97U U102C U144G] the “polymerase ribozyme fitness (log ratio)” value was ≤ -4.2. For GGAUCUACUCGAUAUAACAAAACAGACAAAUCUGCCACAAAGCUUGAGAGCAUCUUCGGAUGCAGAGGCGGCAGGCUUCGGUGGUGCGAUAGCGCCAACGUUCUCAACUAUGACACGCAAAACGCGUGCUCCGUUGAAUGGAGUUUAUCAUG [U7A C14A A23C C75G C85U], the “polymerase ribozyme fitness (log ratio)” value was ≤ -4.2. With GGAUCUACUCGAUCUAACAAAAAAGACAAAUGUGCCACAAAGCUAGAGAGCAUCCUCGGAUGCAGAGGCGGCAGCCUUCGGUGGCGUGAUAGGGCCAACGUUCUCAACUAUGACACGCAAAACGCGUGCUCCGUUGAAUGUAGUUUAUCAUG [U7A C32G U45A U55C C87U C93G G141U] the “polymerase ribozyme fitness (log ratio)” value was ≤ -4.2. For GGAUCUACUCGAUCUAACAAAAAAGACAAAUCUGCCACAAAGCUUGAGAGCGUCUUCCGAUGCAGAGGCGGCAGCCUUCGGUGACGCGAUAGCGCCAACUUUCUCGACUAUGACACGCAAAACGCGUGCUUCGUUGAAUGGAGUUUAUCAUG [U7A A52G G58C G84A G100U A106G C131U], the “polymerase ribozyme fitness (log ratio)” value was ≤ -4.2. In the case of GGAUCUACUCGAUCUAACAAAAAAGACAAAUCUGCCACAAAGCUUGAGAGCAUCUUCGAUUGCAGAGACGGCAGCCUUCGGGGGCACGAUAGCGCCAACGCUCUCAACUAUGACACGCAAAACGCGUGCUCCGUUGAAUGGAGUUUAUCAUG [U7A G59A A60U G68A U82G G86A U101C], the “polymerase ribozyme fitness (log ratio)” value is reported as ≤ -4.2. With GGAUCUACUCGAUCUAACAAAAAAGACAAAUCUGCCACAAAGCUUGAGAGCAUCUUCCGAUGCAGAGGCGGCAGCCUUCGGUGGCGCGAUAGUGCCAACCUUCUCAACUAUGACACGCAAAACGAGUGCUCCGUUGAAUGGAGUUUAUCAUG [U7A G58C C93U G100C C125A] the “polymerase ribozyme fitness (log ratio)” value was ≤ -4.2. In the case of GGAUCUACUCGAUCUAACAAAAAAGACAAAUCUGCCACAAAGCUUGAGAGCAUCUUCGGAUGCAGAGGCGGCAGCCUUCGGUGGCGCGAUAGCCCCAACGUUCUCAACUACGACACGCAAAACGCGUGCUCCGUAGAUUGGAGUUUAUCAUG [U7A G94C U111C U135A A138U], the “polymerase ribozyme fitness (log ratio)” value is reported as -3.87. In the case of GGAUCUACUCGAUCUAACAAAAAAGACAAAUCUGCCACAAAGCUUGAGACCCUCUUCGGAUGCAGAGGCGGCAGCCUUCGGUGGCGCGAUAGCGUCAACGUUCUCAACUAUGACACGCAAAACGCGUGCUCCGUUGAAUGGUGUUUAUCAUA [U7A G50C A52C C95U A142U G152A], the “polymerase ribozyme fitness (log ratio)” value is reported as ≤ -4.2. In the case of GGAUCUACUCGAUCUAACAAAAAAGACAAAUCUGCCACAAAACUUGAGAGCAUCUUCCGAUGCAGAGGCGGCAGCCUUCGGUGGCGCGGUAGCGCCAACGUUCUCAACUAUGACACGCAAAACACGUGCUCCGUUGAAUGGACUUUAUCAUG [U7A G42A G58C A89G G124A G143C], the “polymerase ribozyme fitness (log ratio)” value is reported as ≤ -4.2. In the case of GGAUCUAAUCGAGCUAACAAAAAAGCCAAAUCUGCCACAACGCUUGAGAGCAUCUUCGGAUGCAGAGGCGGCAGCCUUCGGUGGGGCGAGAGCGCCAACGUUCUCAACUAUGACACGCAAAACGCGUGCUCCGUUGAAUGGAGGUUAUCAUG [U7A C8A U13G A26C A41C C85G U90G U144G], the “polymerase ribozyme fitness (log ratio)” value is reported as ≤ -4.2. In the case of GGAUCUACUCGAUCUAACAAAAAAGACAAAUCUGCCACAAAGCUUGAGCGCAUCUUCGGAUGCAGAGACGGCAGCCUUCGGUGGCGCGAUAGCGCGAACGUUCUCAACUAUGACACGCAAAACGCGUGCUCCGUUGAAUGGAGUUUAUCAUG [U7A A49C G68A C96G], the “polymerase ribozyme fitness (log ratio)” value is reported as ≤ -4.2. With GGAUCUACUCUAUCUAACAAAAAAGACAAAUCUGCCACUAAGCUUGAGAGCAUCUUCGGAUGGAGAGGCGGCAGCCUUCGGUGGAGCGAUAGCGCCAACGUUCUCAACUCUGACACGCAAAACGCGUGCUCCGUUGAAUGGAGUUUAUCAUG [U7A G11U A39U C63G C85A A110C] the “polymerase ribozyme fitness (log ratio)” value was ≤ -4.2. With GGAUCUACUCGAUCUAACAAAAAAGACAAAUCUGCCACAAAGCUUGAGAGCAUCUUCGGAUGCAGAGGCCGCAGCCCUCGGUGGCGCGAGUGCGCCAACGUUAUCGACUAUGACACGCAAAACGCGUGCUCCGUUGUAUGGAGUUUAUCAUG [U7A G70C U77C U90G A91U C103A A106G A137U] the “polymerase ribozyme fitness (log ratio)” value was ≤ -4.2.
